Measurements from publication PMC10726135.
The list shows a part of the results. At the low end of the ranking the order means little. The protein was read in a cell extract, so binding may be indirect.

These sequences were tested against T1, HNF4alpha8 (COS-7 nuclear extract) (UniProt P41235-5) (assay: protein-binding microarray). Details: COS-7 nuclear extract on double-stranded Agilent 4x180k PBM; binding buffer, salt, pH and temperature not given; high values mean tight binding; double strand, one strand shown; sequences stand for … in …GCCTAGGGAGATTAGAGTATCGGTCGA.
T1 sequence: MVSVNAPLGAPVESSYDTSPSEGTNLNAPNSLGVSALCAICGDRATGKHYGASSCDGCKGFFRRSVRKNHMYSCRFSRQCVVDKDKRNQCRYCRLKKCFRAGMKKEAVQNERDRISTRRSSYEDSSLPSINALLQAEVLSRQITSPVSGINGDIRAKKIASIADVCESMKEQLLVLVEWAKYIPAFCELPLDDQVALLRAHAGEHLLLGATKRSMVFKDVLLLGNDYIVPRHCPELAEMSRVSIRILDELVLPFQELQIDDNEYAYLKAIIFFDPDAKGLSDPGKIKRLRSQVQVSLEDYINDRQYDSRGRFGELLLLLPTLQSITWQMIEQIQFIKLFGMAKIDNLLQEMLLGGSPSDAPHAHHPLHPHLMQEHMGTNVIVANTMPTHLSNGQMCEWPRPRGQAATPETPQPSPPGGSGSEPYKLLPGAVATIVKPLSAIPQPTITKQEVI
GTCTATGTGTGCTTTCTTCATTAACTCTTG gave a binding signal (log2 normalized intensity) of 0.169. With TGCGGCTTCTCATACTACTGTACTTTGCTC the binding signal (log2 normalized intensity) was 5.94. GAGCATTTCTCTCCTAAGCAGGACAGCAGA gave a binding signal (log2 normalized intensity) of -1.24. TCAGCCCACAGGTCAATCCAGGTTGCTGCC gave a binding signal (log2 normalized intensity) of 0.332. Work on GAACAATGTCTAATGGTGGAATTTCAGTCA yielded a binding signal (log2 normalized intensity) of 1.08. CAGCATCTTCACCGTAAAGCCACCCCTTTC was tested, and the binding signal (log2 normalized intensity) was 2.59. For ATACTTTGCTCTCCAAATTGGGGCCAACAG, the binding signal (log2 normalized intensity) was -0.406. ATTAGAGCACAATGTGGGGAGCACATGGCA gave a binding signal (log2 normalized intensity) of -1.08. With TTCATTCTTTAAGGACCACATCAAAGGTCA the binding signal (log2 normalized intensity) was 5.32. With GATGAGTGACCTTTGACCTCAGAGAGCCGG the binding signal (log2 normalized intensity) was 9.88. GTCCTTTAACAAGGACAAAGGTCAACAAAC showed a binding signal (log2 normalized intensity) of 6.77. TAACTTGAGTGTGCACCCTGGTCTCTCTTA showed a binding signal (log2 normalized intensity) of 0.729. In the case of ATTTTCTCACTCTAAAGGAAGGGATTATAA, the binding signal (log2 normalized intensity) is reported as -1.25. AGTGAACTCAAAGAAAAGTTATGTTGGGCA gave a binding signal (log2 normalized intensity) of 0.603. Sequence TTCTGTCTTTTTAATAGTGCATTATCAGTA has a binding signal (log2 normalized intensity) of 1.23. CTAGCCACAGGGGAAACACAGACTCCAAAG was tested, and the binding signal (log2 normalized intensity) was -1.25. GGACTGAACAGATATTGGCCAAAGGGCACA gave a binding signal (log2 normalized intensity) of 3.64. CTACTTTTAAAACGCTCAAATAAGCCTTGC gave a binding signal (log2 normalized intensity) of -1.26. Work on AGCATCTTATCAGCAGGAGACCTGAAACTA yielded a binding signal (log2 normalized intensity) of -1.09. Work on CACTTTCCACTCTCTACTGATATGTCCTCC yielded a binding signal (log2 normalized intensity) of 1.83. Sequence TTTGCCCTCAAGGAGTTTTAGATTAGGAGA has a binding signal (log2 normalized intensity) of -0.372. For GCCTGAGCATCTTATCAGCAGGAGACCTGA, the binding signal (log2 normalized intensity) was -1.28. TTGAGTGGTTTACTGCGTCACAAGTCACAA was tested, and the binding signal (log2 normalized intensity) was -1.35. With GCTGCCATCCCACATTCCACAGACTCACTT the binding signal (log2 normalized intensity) was -1.33. For GCAGATGGGCAGCACTGTGATTTGTTCAGG, the binding signal (log2 normalized intensity) was -0.302. AGAGCCGGGAAAGGCCGGAGGGCGGGGCGG showed a binding signal (log2 normalized intensity) of -1.21. Sequence GTATTAACATGTAAATATGACCTTTGCTTT has a binding signal (log2 normalized intensity) of 7.1. In the case of AGAGGACAGAAGAAGGAAAAGGCCTGACCT, the binding signal (log2 normalized intensity) is reported as 1.07. In the case of GGGAAAAGATAAGATTATCTCGTCACCTTT, the binding signal (log2 normalized intensity) is reported as 1.34. With CAGGACCAGGTGTAGATAAACTGGAAAGGG the binding signal (log2 normalized intensity) was -1.25. With TCTCTGGTCGGGGAGGTGTTTATCTTGTGG the binding signal (log2 normalized intensity) was 1.93. For ATTCCTTCAGGAAGGCCTGTTAAAAACACG, the binding signal (log2 normalized intensity) was -1.37. Work on TCCTACTGACCTCCGACCCCACGGACTTAA yielded a binding signal (log2 normalized intensity) of 4.54. Work on CCTGAGATGTCTGCTTCTTGGGTCAAAGTC yielded a binding signal (log2 normalized intensity) of 3.38. Sequence AAGAAAAACAAGTGGAGTAGGATTTCTAGT has a binding signal (log2 normalized intensity) of -1.34. Sequence CATGAGAAACATGACACCCATCATGAGTAG has a binding signal (log2 normalized intensity) of -1.24. TATCTAGGGTCAAAGGGTCAAGTTCAGATC gave a binding signal (log2 normalized intensity) of 6. For TATGCTCTCTCTCCACCTGGAGGGACTTTG, the binding signal (log2 normalized intensity) was 3.06. For TGGTCCAAGGTACATGTCTCTGCTCCTAAA, the binding signal (log2 normalized intensity) was 1.82. CTTGTCCAGGGACTTTGAACACTTCTTTGT showed a binding signal (log2 normalized intensity) of 4.28. In the case of TCTATCTCCCTGTGACCTCCAACTATTGCT, the binding signal (log2 normalized intensity) is reported as 0.866. TAGTTTTGTAACTTAAAGATCATGTTTGAG showed a binding signal (log2 normalized intensity) of 1.62. Sequence GTCCAAGTCCAAAGGTCTGAGAACCAAGAG has a binding signal (log2 normalized intensity) of 4.01. Work on GAACTTTGACTTATTTAGTAGTGGCAAGAG yielded a binding signal (log2 normalized intensity) of 3.1. CACAGCACTGTTTATTTTGTGTGATACTCA was tested, and the binding signal (log2 normalized intensity) was 1.68. For TTCTGGCAAAGCCAATCTGCTTAAAGGCAA, the binding signal (log2 normalized intensity) was -1.2. TCGGCTCCATCTAGCAGCCCCAACCCACTG showed a binding signal (log2 normalized intensity) of 3.02. With AGTTCAGGCCTCGGCTTCATTAGCAAATAA the binding signal (log2 normalized intensity) was -1.39. Work on GCATTTTGCAGACCTTGGTCAAAGTGACAC yielded a binding signal (log2 normalized intensity) of 2.31. GGCCTGTGCTGGGGACAAAAGCTGAGTCCC showed a binding signal (log2 normalized intensity) of -1.34. Sequence CTTGAGCACTAAAGAGGCTACCAGACCTTG has a binding signal (log2 normalized intensity) of -1.34. Work on CACACGGTGTCCAGATTCCAGCCTCCTGCT yielded a binding signal (log2 normalized intensity) of -1.4. GGGCATAGCAGATAAGCATTGTGTGTGTTG gave a binding signal (log2 normalized intensity) of 1.88. Work on TCCAGAAGGTCAGGACCACACATTCCATTA yielded a binding signal (log2 normalized intensity) of -0.984. TGGGGGAAATTCTCAAAAGTTTTTCCCTTC showed a binding signal (log2 normalized intensity) of 0.231. Sequence GGAGTTAGGGAAAAGATAAGGCGTAGTTCA has a binding signal (log2 normalized intensity) of -0.354. ACCTGACTAAAACCTGCTGCAGGAGAGATG was tested, and the binding signal (log2 normalized intensity) was -1.38. GCAGTGGCGCAATCTCAGCTCAATCTCTGT was tested, and the binding signal (log2 normalized intensity) was -1.39. GGAATGCAGTGACATGATCAAAGTTCATTG showed a binding signal (log2 normalized intensity) of 5.01. Sequence TTTCAAAGACAAATATCGACAAGCCAGATC has a binding signal (log2 normalized intensity) of -1.31. Work on CAGCAAGCATTAATCCCTGAGCCTGGACCT yielded a binding signal (log2 normalized intensity) of 2.58. Work on TGTTTCTGGAGAATGCTGTCCTGCCAGTTG yielded a binding signal (log2 normalized intensity) of -0.0727. Work on AGAAGCACGTGCAAAGTACAAAGTACAGAG yielded a binding signal (log2 normalized intensity) of 4.6. Work on CCAGTGGACTCTCTGTTTGATCAGCTGGTC yielded a binding signal (log2 normalized intensity) of 2.29. In the case of CTTCCCATAAAACCTAGACAGAAGCTTTCT, the binding signal (log2 normalized intensity) is reported as -1.34. For GGGGAATAAAGAACGCTCACAGAAAGAAGA, the binding signal (log2 normalized intensity) was -1.37. AGGATTTACTTATACAGCGTCTAAGAAGAT gave a binding signal (log2 normalized intensity) of -1.24. CTGCATTCCTCCTGGCCTCTCTGAGCAGCC gave a binding signal (log2 normalized intensity) of -1.27. With CTTTCCACCCTGTTGCACAAGCTGTGTGGC the binding signal (log2 normalized intensity) was 0.723. In the case of AAACAGGTTCTTCCACGACTCCCCCGCTCA, the binding signal (log2 normalized intensity) is reported as 3.05. Sequence CTTTGACCTTTCCATAGTTCCGAGTTCCCT has a binding signal (log2 normalized intensity) of 2.05. CAAAGTCCTAGAGTCCCTATTTGCTTGTGA was tested, and the binding signal (log2 normalized intensity) was 1.21. CCAGCTCTTTACTCAGGTCATCAGGACTCT showed a binding signal (log2 normalized intensity) of 0.914. TTCTTAAACGTATGCCACATCACCTCTGAC showed a binding signal (log2 normalized intensity) of -1.14. In the case of CCTCGGCTCGGCCCCAGTCCCCCGGACCAG, the binding signal (log2 normalized intensity) is reported as 3.79. GAATGTGTGATAAGGAACTGTGTAATAAGG gave a binding signal (log2 normalized intensity) of 0.666. For CTTTTGGTGAGTCTTTGCCCCTGGACTTTG, the binding signal (log2 normalized intensity) was 5.85. AGGGAATTTCTAGGTTTGATCTTTGCCCTA showed a binding signal (log2 normalized intensity) of 7.66. Sequence AAGTGGTGATTTCGTTGAAAGCTGCTTCCC has a binding signal (log2 normalized intensity) of -1.2. Work on GGTTAAGCCACCAAAAAGTAAATAGCCCCA yielded a binding signal (log2 normalized intensity) of 3.46. For GGTGAGGGTGGGCCTGGGGGGAGACAACTG, the binding signal (log2 normalized intensity) was -1.35. For GATACCTTCCTGAATGCCTAGGTGACAAGG, the binding signal (log2 normalized intensity) was -0.803. With CTCTGTGATAGCCTTTTACCTTGGCAGCCA the binding signal (log2 normalized intensity) was -0.147. TTGACCTTCGAACCCTTGCCATTTACATCA was tested, and the binding signal (log2 normalized intensity) was 6.21. For TTCTGCGGAAATAATTGATTCAGGTGAGCC, the binding signal (log2 normalized intensity) was -0.354. Sequence CTATGCCCTTTGAAATTCTGGACTTTCAAC has a binding signal (log2 normalized intensity) of 5.94. ATGAGCTAGAGCTCGTGTCATCTCTGGCTA gave a binding signal (log2 normalized intensity) of -1.39. For CAGACTAGTATTGAGTTTGCTCTGCTACTA, the binding signal (log2 normalized intensity) was -1.06. ACAGGGCAAAGGTGCCAGGTAATTCAAAGC showed a binding signal (log2 normalized intensity) of -0.45. For AAGCAGGTTCACATTTTTGTCATCTTCACT, the binding signal (log2 normalized intensity) was 0.204. For TGTCAAAATCTGATCTTTCCTCTAAGTGCC, the binding signal (log2 normalized intensity) was 0.364. Sequence GATGTGTGAAGGACACAGAATGACTTTCAG has a binding signal (log2 normalized intensity) of -0.193. With GAAAGTCTTGATAAGAAACCCAAGATTTGG the binding signal (log2 normalized intensity) was -1.03.
